Data reported in publication PMC4336329 (PLoS ONE, 2015).
The whole screen tested about 310,000 compounds, of which about 2,200 (0.71%) showed an effect of 50% or more. The effect is printed as a negative number. This is one part of the list.

The compounds below were run against human ether-à-go-go-related gene (hERG) potassium channel (human, UniProt Q12809) (assay: primary screen, population patch clamp on CHO cells stably expressing hERG).
Chain of human ether-à-go-go-related gene (hERG) potassium channel (Q12809 whole entry, looked up): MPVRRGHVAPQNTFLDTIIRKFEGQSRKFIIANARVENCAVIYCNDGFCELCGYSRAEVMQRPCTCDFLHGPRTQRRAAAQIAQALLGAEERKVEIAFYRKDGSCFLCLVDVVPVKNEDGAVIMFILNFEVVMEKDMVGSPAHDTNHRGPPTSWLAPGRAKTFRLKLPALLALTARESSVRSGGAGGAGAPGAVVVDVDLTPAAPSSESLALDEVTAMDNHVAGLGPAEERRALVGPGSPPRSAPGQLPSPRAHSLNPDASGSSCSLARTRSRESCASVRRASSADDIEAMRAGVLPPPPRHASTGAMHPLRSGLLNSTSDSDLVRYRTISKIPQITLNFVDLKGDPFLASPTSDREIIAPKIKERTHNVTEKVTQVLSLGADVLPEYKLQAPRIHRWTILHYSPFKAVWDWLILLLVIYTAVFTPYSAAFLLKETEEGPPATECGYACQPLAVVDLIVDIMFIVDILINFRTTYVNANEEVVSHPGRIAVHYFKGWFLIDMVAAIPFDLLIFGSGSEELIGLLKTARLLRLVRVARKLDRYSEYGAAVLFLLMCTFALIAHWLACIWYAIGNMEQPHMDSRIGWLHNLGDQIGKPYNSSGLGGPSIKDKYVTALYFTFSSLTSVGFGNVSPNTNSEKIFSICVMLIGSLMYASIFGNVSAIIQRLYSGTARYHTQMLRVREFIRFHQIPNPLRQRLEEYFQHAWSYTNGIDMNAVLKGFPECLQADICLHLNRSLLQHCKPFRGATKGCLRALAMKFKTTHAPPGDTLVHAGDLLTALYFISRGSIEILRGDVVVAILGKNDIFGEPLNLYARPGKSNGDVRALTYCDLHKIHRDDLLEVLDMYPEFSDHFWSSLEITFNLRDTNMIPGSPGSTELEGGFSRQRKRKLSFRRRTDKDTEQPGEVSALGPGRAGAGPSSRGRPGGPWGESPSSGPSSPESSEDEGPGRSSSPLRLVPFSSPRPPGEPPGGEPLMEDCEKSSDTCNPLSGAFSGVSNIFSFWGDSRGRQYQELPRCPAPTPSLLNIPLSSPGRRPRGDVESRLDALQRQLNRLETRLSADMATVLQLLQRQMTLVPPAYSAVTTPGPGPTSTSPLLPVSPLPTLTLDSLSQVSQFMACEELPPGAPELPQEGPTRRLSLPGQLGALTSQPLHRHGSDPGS

| Structure (SMILES) | hERG current change (%, negative = inhibition) at 1uM [%] |
| --- | --- |
| Cc1cccc(N(Cc2cc3ccc(C)cc3[nH]c2=O)S(=O)(=O)c2ccccc2)c1 | 10.6 |
| COCCNC(=O)C1CCN(C(=O)c2cc3sccc3n2Cc2ccc(F)cc2)CC1 | -3.16 |
| CCSc1nnc(-c2cccc(S(=O)(=O)N(C)C)c2)n1-c1cc(OC)ccc1OC | -15.3 |
| O=C(O)C1C2C=CC(O2)C1C(=O)Nc1cccc(C(F)(F)F)c1 (stereo not shown) | 14.3 |
| Cc1ccc([N+](=O)[O-])cc1N/C=C1\CCCCC1=O | 16.5 |
| O=C(NCCCNC(=O)c1ccccc1Cl)c1cnccn1 | 10.4 |
| CC(C)CNC(=O)COCc1cc(-c2ccc3c(c2)OCO3)on1 | 10.6 |
| CC(=O)CC(=O)Nc1nc(C)cc(C)n1 | 12.1 |
| O=C(CSc1nnc(N2CCCC2)n1-c1ccccc1Cl)N1CCN(c2ccccn2)CC1 | -0.848 |
| CCCc1nnc(NC(=O)CCC(=O)NC2CCCc3ccccc32)s1 (stereo not shown) | 8.75 |
| O=C(N=C1SC2CS(=O)(=O)CC2N1c1cccc(Cl)c1Cl)C1CC1 (stereo not shown) | 9.41 |
| Cc1onc(-c2ccccc2)c1C(=O)c1c[nH]c(C(=O)NCc2ccccn2)c1 | 8.37 |
| NS(=O)(=O)c1ccc(NS(=O)(=O)c2ccc(NC(=O)C3CC3)cc2)cc1 | 14.4 |
| CCOc1nc(-c2ccc(Cl)cc2)nc2ccccc12 | 5.94 |
| Cc1ccccc1N=C1c2cc([N+](=O)[O-])ccc2-c2ncccc21 | 11.2 |
| O=[N+]([O-])/C=C/c1cc2ccccc2[nH]1 | 17 |
| O=[N+]([O-])c1ccccc1SNc1ccc(Br)cn1 | 18.4 |
| O=[N+]([O-])c1ccc(O)c(C2=NNC(c3ccccc3F)C2)c1 (stereo not shown) | 3 |
| O=C(c1ccc(OCC[NH+]2CCCCC2)cc1)c1c(-c2ccc(O)cc2)sc2cc(O)ccc12.[Cl-] | 9.06 |
| c1ccc(COc2ccccc2CNc2nn[nH]n2)cc1 | 13 |
| COc1cc(C)c(Br)cc1S(=O)(=O)NCCN1CCOCC1 | 13.3 |
| COc1cc(C(C)=O)ccc1Oc1ncnc2c1cnn2-c1ccccc1 | 5.49 |

| Structure (SMILES) | hERG current change (%, negative = inhibition) at 1uM [%] |
| --- | --- |
| CCOc1[nH]n(-c2ccccc2)c(=O)c1C=Nc1ccc(F)cc1F | 14.8 |
| O=C(NCC1CCCO1)c1csc(Nc2cccc3ccccc23)n1 (stereo not shown) | -2.49 |
| CC(C)CNC(=S)NNC(=O)c1ccco1 | -18.3 |
| CC1CCN(c2ccc([N+](=O)[O-])cc2C(=O)N2CCOCC2)CC1 | 8.6 |
| O=c1c2ccccc2[nH]c(=S)n1CCC1=CCCCC1 | 13.4 |
| CCOC(=O)N1CCC(NC(=O)c2ccc3c(c2)ncn3C2CCCC2)CC1 | 5.91 |
| Cc1ccc(C2=NN(C(=O)CN3C(=O)c4ccccc4S3(=O)=O)C(c3ccco3)C2)cc1 (stereo not shown) | 6.24 |
| COC(=O)c1cc(NC(=O)c2ccc(OC)cc2)c(=O)oc1C | 14 |
| CC[C@@]1(c2ccccc2)C(=O)N(C(=O)OC)N1C(=O)OC | 19.7 |
| COc1ccc(N2C(=O)NC(=O)/C(=C/c3cccc(OC(=O)c4cccs4)c3)C2=O)cc1Cl | 12 |
| Cn1c(N)c(C(=O)COC(=O)CCCN2C(=O)c3ccccc3C2=O)c(=O)n(C)c1=O | 3.78 |
| Cc1c(C(=O)NCCCN2CCCC2=O)oc2ccccc12 | 0.304 |
| Cn1cc(CN2CCC(CO)(CCCc3ccccc3)CC2)c(-c2ccccc2)n1 | -33.6 |
| CCC(C)(C)NC(=O)CN(C(=O)c1snc(C(N)=O)c1N)c1ccc2c(c1)OCCO2 | 13.1 |
| CC(=O)c1cccn1S(=O)(=O)c1ccccc1 | 2.43 |
| O=C(NCCc1ccc(Cl)cc1)c1ccc2nc(N3CCOCC3)sc2c1 | 11.9 |
| NC(=O)c1ccc(NC(=O)COc2cccc3ccccc23)cc1 | 18.2 |
| COc1ccccc1C(=O)OCC(=O)N1CCC(Cc2ccccc2)CC1 | 9.62 |
| NS(=O)(=O)c1ccc(NC(=O)COC(=O)C23CC4CC(CC(C4)C2)C3)cc1 | 9.84 |
| COc1cccc(C(=O)Oc2cc(N)n(S(=O)(=O)c3ccc(C)cc3)n2)c1OC | 7.27 |
| O=C(Nc1ccc(O)cc1)c1cccc(Oc2ccc([N+](=O)[O-])cc2)c1 | 11.4 |
| Cc1cc(-c2nnc3n2N=C(c2ccc(F)cc2)CS3)n[nH]1 | -11.5 |

| Structure (SMILES) | hERG current change (%, negative = inhibition) at 1uM [%] |
| --- | --- |
| Cn1cc(-c2cccc(Cl)c2)cc(C#N)c1=O | -1.86 |
| O=C(CCc1ccccc1Cl)Nc1ccc(S(=O)(=O)N2CCOCC2)cc1 | 8.24 |
| N/C(=N\OC(=O)c1cc(Cl)ccc1Cl)c1ccncc1 | 3.11 |
| COc1nc(C)ccc1-c1noc(-c2ccco2)n1 | 11.3 |
| CCn1c(CNC(=O)COc2ccc(C(C)C)cc2)nnc1SCC(=O)Nc1ccccc1 | -7.27 |
| Cc1ccc(C2(C)NC(=O)N(CC(=O)N3CCN(S(=O)(=O)c4cccc(F)c4)CC3)C2=O)cc1 (stereo not shown) | -18.1 |
| CC1CC(C)CN(S(=O)(=O)c2cccc(C(=O)OCCN3CCCC3=O)c2)C1 (stereo not shown) | 1.63 |
| COc1ccc(-n2c(C)c3c(OC)cccc(=O)c3c2C)cc1 | 0.316 |
| Brc1ccc(-c2nc(-c3ccccc3)no2)o1 | 12.8 |
| C=CCOc1cccc(C2C(C(=O)c3ccco3)=C(O)C(=O)N2CCN(CC)CC)c1 (stereo not shown) | 5.68 |
| CCn1cc(C(=O)NCCOC)c(=O)c2ccc(C)nc21 | 7.87 |
| CC(=O)n1nc(-c2ccco2)nc1SCc1ccccc1 | 6.39 |
| CC(=O)Nc1ccc(Nc2cc(C)nc3c(-c4ccccc4)cnn23)cc1 | 19 |
| COC(=O)c1ccc(CN2CCN(Cc3ccccc3)C(CCO)C2)cc1 (stereo not shown) | 2.22 |
| O=C(CSc1nnc(-c2ccccc2Cl)n1Cc1ccco1)Nc1ccc2c(c1)OCCO2 | 9.49 |
| CC1=C(C(=O)OCCOC(C)C)C(c2cc3c(cc2Br)OCO3)CC(=O)N1 (stereo not shown) | 18.3 |
| CN1C(=O)C2(C(C#N)=C(N)N(c3ccc(Cl)cc3)C3=C2C(=O)CC(C)(C)C3)c2ccccc21 (stereo not shown) | 6.2 |
| COc1ccc(-c2cc(C(=O)NCC3CCCO3)c3ccccc3n2)cc1 (stereo not shown) | -6.42 |
| CCOC(=O)C1CCN(C(=O)c2c(-c3ccccc3)noc2C)CC1 | 8.08 |
| O=C(CNC(=O)c1ccco1)NCC(=O)OCc1ccccc1Br | 4.57 |
| O=C(Nc1ccc(Cl)cn1)c1cccc(S(=O)(=O)N2CCOCC2)c1 | -42.5 |
| COc1ccc(NC(=O)c2ccco2)c(OC)c1 | 11.3 |

| Structure (SMILES) | hERG current change (%, negative = inhibition) at 1uM [%] |
| --- | --- |
| Cc1cc(C)c(O)c(-c2cc(C(=O)NCc3ccccc3)[nH]n2)c1 | 10.3 |
| CC(OC(=O)Cn1[nH]c(=O)c2ccccc2c1=O)C(=O)Nc1ccc(F)cc1 (stereo not shown) | 4.55 |
| O=C(CSCc1ccc(F)cc1)Nc1ccc(F)cc1 | 11 |
| CCN(C(=O)CSc1nc(-c2ccccc2)c(-c2ccccc2)[nH]1)C1CCS(=O)(=O)C1 (stereo not shown) | 5.3 |
| C/C(=N\NC(=O)c1ccccc1F)c1ccccn1 | 6 |
| COc1ccc(/C=N/Nc2cc(C)nc(N3CCOCC3)n2)cc1 | 12.3 |
| Cc1nc(N2CCCCC2C)c2c(C)c(C(=O)Nc3cccc(C(F)(F)F)c3)sc2n1 (stereo not shown) | 7.9 |
| O=[N+]([O-])c1ccc(S(=O)(=O)Nc2nc3ccccc3nc2Nc2ccccc2)cc1 | 0.293 |
| CC(=O)Nc1ccc(OCC(O)Cn2c(C(C)C)nc3ccccc32)cc1 (stereo not shown) | 22.6 |
| CCCCn1nc(C(=O)Nc2cc(S(=O)(=O)N(C)C)ccc2C)c2ccccc2c1=O | -1.42 |
| CCOC(=O)CC1CCCCN1Cc1cn[nH]c1-c1ccc(F)cc1F (stereo not shown) | -14.4 |
| COC(=O)C1CC(O)CN1S(=O)(=O)c1ccc2ccccc2c1 (stereo not shown) | 1.05 |
| O=[N+]([O-])c1cccnc1Oc1ccccc1F | 8.42 |
| CC(C)CC(=O)Nc1ccc(C(=O)Nc2cccc(O)c2)cc1 | 8.16 |
| CCC1CCCCN1S(=O)(=O)c1ccc(C(=O)Nc2nnc(C3=COCCO3)o2)cc1 (stereo not shown) | 10.5 |
| O=C(COC(=O)c1n[nH]c2ccccc12)NC(=O)NCc1ccco1 | 4.13 |
| CC(=O)c1cc(C)ccc1OC(=O)c1ccco1 | 7.39 |
| CN(C)c1ccc(NC(=O)COC(=O)c2cc(=O)c3ccccc3o2)cc1 | 11.9 |
| CCc1nc2ccccc2n1Cc1ccccc1OC | 7.19 |
| CN(C(=O)COC(=O)C1CCN(S(=O)(=O)c2ccc3c(c2)OCCO3)CC1)C1CCCCC1 | 5.05 |
| Brc1ccc(CSc2ncnc3nc[nH]c23)cc1 | 4.34 |
| Cc1ccc(NC(=O)NC(=O)N(C2CCCCC2)S(=O)(=O)c2ccccc2)cc1 | -2.08 |
